The values that follow come from ChEMBL document CHEMBL4888484, “Replenishing the malaria drug discovery pipeline: Screening and hit evaluation of the MMV Hit Generation Library 1 (HGL1) against asexual blood stage Plasmodium falciparum ,using a nano luciferase reporter read-out” (2022).

SMILES strings stand for the structures. The whole screen tested about 150,000 compounds, of which about 540 (0.36%) showed an effect of 50% or more. The list shows a part of the results.

Usually % Inhibition stands for the change of the read-out against control, counted positive when it falls.

The test system of this test is Plasmodium falciparum. Kind of test: Primary screen in NF54 nanoGlo assay, in single point, at 2uM, 72h; a lower Z score goes with more inhibition. The settings on record: timepoint 72 hour. The class given is functional, Erythrocyte.
Turning to `O=C(Cc1ccc(Cl)cc1)Nc1ccc(S(=O)(=O)Nc2ccccc2)cc1`, the “% Inhibition” value is on record as -7% and the Z score is 0.71.
For `CC(C)Cc1cc(C(=O)N2C[C@@H](F)C[C@H]2CNC(=O)N2CCCC2)on1`, in that order: 2% and -0.34.
In the case of `CC(C)n1nc(CC(N)=O)nc1-c1ccc(S(C)(=O)=O)cc1`, the “% Inhibition” value is 2% and the Z score is on record as -0.36.
For the compound `Cc1cc(CN(C)CC2(O)CCOCC2)ccc1N1CCCCC1`, the “% Inhibition” value was -3% and the Z score is 0.35.
For `O=S(=O)(c1ccc2c(c1)CCCC2)N1CC(n2nccn2)C1`, in that order: 2% and -0.24.
For `COc1ccc(CN2C[C@H]3CC[C@@H](C2)N(C(=O)c2nn(C)cc2Cl)C3)cc1`, in that order: -9% and 1.27.
The like results for `Cc1nc(-c2ccncc2C(=O)N2CCN(Cc3ccccc3)CC2)no1` were, in that order, -12% and 1.14.
For `CN(C)S(=O)(=O)CC1CCOCC1`, the “% Inhibition” value is recorded as 15% and the Z score is -1.73.
For `CN1CCCC1C1CCCN1C(=O)C1CCCN(c2nccs2)C1` (stereo unspecified), in that order: -12% and 1.25.
In the case of `CCCn1nc(-n2cnnc2)c(NS(=O)(=O)c2ccc(OC)c(OC)c2)c1C`, the “% Inhibition” value turned out to be 35% and the Z score is -4.7.
The like results for `CN(CCN1CCCCC1=O)Cc1cnc(-c2ccc(Cl)cc2)nc1` were, in that order, -5% and 0.97.
The like results for `Cn1cc(C(NCC(O)C(F)(F)F)C2(CO)CCC2)cn1` (stereo unspecified) were, in that order, 1% and -0.25.
The like results for `O=C(NC[C@H]1CCCS1(=O)=O)Nc1ccccc1Oc1cc(F)cc(F)c1` were, in that order, 4% and -0.58.
On to `C=CCn1c(=O)[nH]c2c(-c3ccccn3)nsc2c1=O`, for which the “% Inhibition” value is -4% and the Z score stood at 0.53.
On to `O=C(Nc1nncs1)C1CCN(S(=O)(=O)c2ccc3c(c2)CCC3)CC1`, for which the “% Inhibition” value is reported as -7% and the Z score is recorded as 1.03.
The like results for `c1ccc(COCCCc2nc(Cn3ccnn3)no2)cc1` were, in that order, -9% and 1.62.
For `CCCN(C)C(=O)c1ccc(-c2ccc3c(c2)OCO3)s1`, in that order: -16% and 1.54.
The like results for `CC(CC(=O)NCC(O)c1ccccc1)NC(=O)C1CCCC1` (stereo unspecified) were, in that order, -7% and 1.3.
Regarding `COC[C@H]1C[C@@H](O)CN1C(=O)NCc1ccc(NC(C)=O)cc1`, the “% Inhibition” value came to 1% and the Z score is given as -0.2.
For `Cn1nc(NC(=O)c2ccccc2)c2c1CCN(C(=O)C1CCOCC1)C2`, in that order: -18% and 1.57.
As for `O=C(NCc1ccccn1)[C@@H]1CC=CCC1`, the “% Inhibition” value was -11% and the Z score is given as 1.29.
The like results for `COc1ccc(-n2ncc(Oc3cccc(C)c3)c(Nc3cccc(C(=O)NCc4ccncc4)c3)c2=O)cc1` were, in that order, 13% and -1.82.
The like results for `CC(C)Oc1cc(CNc2cc(-n3cccn3)nc(N)n2)ccn1` were, in that order, -18% and 1.94.
Take `CC(C)(C)n1ncc2c1NC(=O)C[C@@H]2c1c(F)cccc1F`: the “% Inhibition” value is 27% and the Z score is given as -3.08.
For `Cc1nonc1CNC(=O)c1cccc(CN2CCCCCC2)c1`, in that order: -1% and 0.17.
Turning to `COc1cccc(NC(=O)Nc2ccc3c(c2)N(S(C)(=O)=O)CC3)c1`, the “% Inhibition” value is on record as -3% and the Z score is listed as 0.54.
For `Cc1ncc(CO)c(CN2CC[C@@](O)(c3ccccc3)[C@H]3CCCC[C@@H]32)c1O`, in that order: -1% and 0.08.
On to `Cc1cc(S(=O)(=O)N(C)CCn2cccn2)c(C)s1`, for which the “% Inhibition” value was found to be 2% and the Z score is -0.23.
For `COc1ccc(/C=C/CN2CCCN([C@H]3COC[C@@H]3O)CC2)cc1`, in that order: -17% and 3.47.
Turning to `C=CCNC(=O)N1CCc2nc(N3CCC(C)CC3)nc(Oc3ccccc3OC)c2C1`, the “% Inhibition” value is given as -14% and the Z score is given as 1.46.
On to `O=C(NCc1ccc(C(=O)O)o1)c1ccc2cccc(Cl)c2n1`, for which the “% Inhibition” value is reported as -24% and the Z score is 2.57.
The like results for `C[C@@H](Cc1ccsc1)N(C)c1ncc(S(N)(=O)=O)s1` were, in that order, -17% and 1.77.
As for `Cc1ccc(-c2cc(C(=O)N3CCN(c4ccc(Cl)cc4)CC3)c(C)[nH]2)cc1`, the “% Inhibition” value is listed as -14% and the Z score was found to be 1.8.
As to `CCOC(=O)Cc1csc(NC(=O)CCc2c[nH]c3ccccc23)n1`, the “% Inhibition” value was -18% and the Z score amounted to 2.77.
`CO[C@@H](CNC(=O)N(C)Cc1nnc[nH]1)c1ccccc1`: the “% Inhibition” value was -12% and the Z score is 1.18.
On to `O=C(c1csc(S(=O)(=O)N[C@H]2CCCc3ccccc32)c1)N1CCCC1`, for which the “% Inhibition” value was -14% and the Z score is on record as 1.45.
On to `O=C(NCc1ccccc1C(F)(F)F)[C@H]1CCCN(c2ncnc3c2oc2ccccc23)C1`, for which the “% Inhibition” value is recorded as -14% and the Z score is 1.75.
Regarding `Cc1ccc2c(C(=O)N3CC4(CCOCC4)C3)csc2c1`, the “% Inhibition” value is -1% and the Z score is recorded as 0.19.
On to `COCc1noc(-c2ccc3ncccc3c2)n1`, for which the “% Inhibition” value is on record as 12% and the Z score is recorded as -1.71.
The like results for `CC(C)N(C)CC1CCN(C(=O)[C@@H](C(=O)O)C2CCCC2)CC1` were, in that order, -14% and 1.84.
For `NC(=O)NCCN1CCc2onc(C(c3ccccc3)c3ccccc3)c2C1`, in that order: 12% and -1.43.
The like results for `Cc1cc(N2CCCN(c3ccc(C#N)cc3)CC2)nc(N)n1` were, in that order, -3% and 0.23.
Take `COc1ccc(N2CCN(CC3=Nc4ccccc4S(=O)(=O)N3)CC2)cc1`: the “% Inhibition” value is -10% and the Z score was 1.49.
As for `Cc1cnc(CCNC(=O)NC(C)C)n1C1CCCCCCC1`, the “% Inhibition” value is reported as -5% and the Z score turned out to be 0.77.
The like results for `COc1ccccc1C(=O)NC1=NN2C(=NC(c3ccc(Cl)cc3)=C[C@H]2c2ccccc2)N1` were, in that order, -8% and 0.83.
For the compound `CN(C)C(=O)O[C@H]1CCN(C(=O)Cc2ccn(CC(F)(F)F)n2)C1`, the “% Inhibition” value was -8% and the Z score is given as 0.99.
For `O=C1NCCOCCCN(S(=O)(=O)c2cccc3nsnc23)[C@H]2CCC[C@@H]12`, in that order: -6% and 0.83.
Take `COc1ccc(OC)c2c1cc(C(=O)Nc1nc(C)c(C)s1)n2C`: the “% Inhibition” value is reported as -5% and the Z score was determined as 0.75.
The like results for `COc1ncnc(OC)c1C(=O)N1CCC[C@H]1C=Cc1ccccc1` were, in that order, 30% and -4.38.
For `CN(C(=O)CCc1ccccc1O)C1CCCC1S(C)(=O)=O` (stereo unspecified), in that order: 0% and 0.05.
For `CC1(CC(F)(F)F)CN(C(=O)Nc2cccnc2-c2ccco2)C1`, in that order: -11% and 2.04.
With `O=S(=O)(c1ccc(N2CCC(Cc3ccccc3)CC2)nc1)N1CCCC1`, the “% Inhibition” value is given as -33% and the Z score amounted to 3.86.
The like results for `c1ccc(CNCC[C@H]2CCCOC2)cc1` were, in that order, -9% and 0.94.
The like results for `CCC[C@H](Nc1nc(-c2ccccc2)nc2c1CCNC2)c1nccn1C` were, in that order, -9% and 1.3.
For `CCOC(C)C(=O)Nc1ccc(NC(=O)C(C)OCC)c(OC)c1` (stereo unspecified), in that order: 3% and -0.4.
In the case of `O=C1CO[C@@H](CNc2nc3ccccc3o2)CN1CC1CCN(CC2CC2)CC1`, the “% Inhibition” value amounted to 0% and the Z score was found to be 0.08.
In the case of `CCOC1CC(NC(=O)NC2CC2)C12CCCC2` (stereo unspecified), the “% Inhibition” value was -8% and the Z score is listed as 1.16.
`Cn1cc([C@H]2OCC[C@@H]2NC(=O)NC2CC23CCOCC3)cn1` (stereo partly specified): the “% Inhibition” value was -5% and the Z score is 0.53.
Consider `COCCN1CCC(NC(=O)NC(c2ncccc2C)C(C)C)C1` (stereo unspecified), for which the “% Inhibition” value is given as -7% and the Z score was found to be 1.38.
For the compound `O=C(NCCOc1ccc2c(c1)OCO2)c1ccnc(C2CC2)n1`, the “% Inhibition” value is reported as -12% and the Z score amounted to 1.58.
The like results for `COc1ccccc1CC(=O)NCc1nc(C2CCC(F)(F)CC2)no1` were, in that order, -11% and 1.35.
With `O=C(NCc1ccco1)NCC1CCOCC1`, the “% Inhibition” value amounted to 0% and the Z score was found to be 0.04.
Take `Cc1ccc(-n2nnnc2N(C)Cc2nnc3ccccn23)cc1`: the “% Inhibition” value is listed as -5% and the Z score is reported as 0.94.
For `CCS(=O)(=O)N1CCC[C@H](Oc2cc(C)nc(C)n2)C1`, in that order: 5% and -0.63.
As for `O=C(O)[C@H]1CN(C(=O)C2(N3CCCC3)CCCCC2)C[C@@H]1c1cccnc1`, the “% Inhibition” value was -10% and the Z score is recorded as 1.2.
For `O=C(NCc1ccccc1F)c1nn(-c2ccccn2)c2nccc(-c3cccs3)c12`, in that order: -9% and 1.56.
For `Cc1cc(F)ccc1S(=O)(=O)N1CCC[C@H](Oc2cc(C#N)ccn2)C1`, in that order: 5% and -0.66.
The like results for `COc1cccc(CNC(=O)c2c(C)noc2-c2cccnc2)c1` were, in that order, -8% and 0.82.
For the compound `CCOCc1nc2c(c(N3CC=CCC3)n1)CCN(CCN)CC2`, the “% Inhibition” value was found to be 0% and the Z score is reported as 0.01.
The like results for `CC(C)[C@H]1C(=O)NCCN1C(=O)c1cc(C(F)(F)F)n[nH]1` were, in that order, -9% and 1.82.
For `Cn1nc(-c2ccccc2)nc1C1CN(C(=O)NC[C@H]2CCCO2)C1`, the “% Inhibition” value is listed as 28% and the Z score was -3.81.
As to `O=C(NCC1(C(F)(F)F)CCC1)c1occ2c1CCC2`, the “% Inhibition” value is reported as -11% and the Z score is on record as 0.91.
As to `C[C@H]1c2ccc(Cl)n2CCN1C(=O)CCc1ccc(=O)[nH]c1`, the “% Inhibition” value was -3% and the Z score is recorded as 0.55.
As to `CC(C)(C)c1cc(C(=O)N2C[C@@H]3[C@@H]4CC[C@@H](C4)[C@@H]3C2)[nH]c(=O)n1`, the “% Inhibition” value is -13% and the Z score amounted to 1.58.
In the case of `Cc1ccc(-n2nc(-c3noc(CCC(=O)N[C@@H](C)CCc4ccccc4)n3)c(=O)n(C)c2=O)cc1`, the “% Inhibition” value was found to be 8% and the Z score was -1.38.
Regarding `Cc1ccc(C(=O)NCc2ccc(N3CCNC(=O)C3)cc2)n1C`, the “% Inhibition” value is -4% and the Z score was found to be 0.47.
The like results for `O=C(Cn1cnc2ccccc21)N1CCC[C@H](Oc2cccnn2)C1` were, in that order, -9% and 1.03.
For `O=C(Nc1ccc(F)cc1)c1nnc(C(=O)N2CCC(C(=O)NCCN3CCCC3)CC2)s1`, in that order: -15% and 1.3.
For `COc1ccc(-n2ncc3c2CC(C)(C)C[C@@H]3NS(=O)(=O)C2CC2)cc1`, in that order: -9% and 1.43.
Regarding `O=c1ccn(Cc2nnc(-c3ccc(Cl)cc3)o2)c2ccsc12`, the “% Inhibition” value was -7% and the Z score amounted to 0.78.
`C=CCNCCOc1ccc(Cl)c(Cl)c1`: the “% Inhibition” value is given as -6% and the Z score worked out at 0.83.
As to `O=C(CN1CCOCC1)N1CCN(C(=O)c2cc3ccccc3s2)CC1`, the “% Inhibition” value worked out at 2% and the Z score is -0.37.
As for `CCN(CC)C(=O)c1cn(C[C@H]2CCCN(C(=O)c3cc(OC)ccc3OC)C2)nn1`, the “% Inhibition” value is given as -13% and the Z score stood at 2.67.
